# Results reported in PubChem BioAssay AID1508642 (National Center for Advancing Translational Sciences (NCATS), 2021).
# The campaign covered roughly 43,000 compounds. About 200 (0.47%) were called active. About 12% were inconclusive and are not listed. Calls come from the whole dose curve; as a rule, active = well fitted cell-killing curve with a large enough effect; inconclusive = small, poorly fitted or top-dose-only effect, or effect the other way; inactive = flat fitted curve, though single readings scatter. Some of the results follow.
# Test: Cell viability qHTS assay in S16 Pmp22-F2sN cells; note: nearly all actives have a fitted effect of over 65% in size
# Settings: S16 Pmp22-F2sN Schwann cells (luciferase reporters placed in the Pmp22 gene) viability, CellTiter-Glo, 24 h; series mostly up to 57.5 µM; activity change, negative = cytotoxicity: at the top concentration
# Summary of the method: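 S16 Schwann cells carrying the Pmp22-F2sN reporter, seeded in 1536-well format, were exposed to library compounds for 24 h at 37C. Viability was read as CellTiter-Glo luminescence after 15 min at room temperature.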
# % is set by controls: 0 for no effect and ±100 for the full control effect; potency is the fitted concentration of half-maximal effect.
SMILES,"activity change, negative = cytotoxicity",Potency
Cc1cccc(C)c1NC(=O)c1ccc2nc(CCc3ccccc3)oc2c1,inactive: -27.1%,
CC1=C(C(=O)Nc2ccccc2)C(c2ccncc2)n2nc(SCc3ccccc3)nc2N1 (stereo not given),inactive: 16.4%,
Cn1c(=O)c2sccc2n2c(CCCC(=O)Nc3ccc(F)c(F)c3)nnc12,inactive: -3.49%,
COc1cccc(-c2cc(C(F)(F)F)nc(NCc3ccc(F)cc3)n2)c1,inactive: 6.25%,
COc1ccc(CCNC(=O)c2ccc3c(c2)nc2n3CCOC2)cc1OC,inactive: 20.9%,
O=C(NCc1ccccc1Cl)C1CCCN(c2nc3ccccc3n3cccc23)C1 (stereo not given),inactive: -8.78%,
Cc1ccc(C)c(S(=O)(=O)NCC(c2ccc(N(C)C)cc2)N2CCOCC2)c1 (stereo not given),inactive: 0.757%,
Cc1cccc(-n2cc(-c3ccccc3)nc2SCC(=O)Nc2ccccc2Cl)c1,inactive: -6.95%,
Cc1ccc(C)c(NC(=O)C(C)N(c2ccccc2)S(C)(=O)=O)c1 (stereo not given),inactive: 15.4%,
Cc1oc2ncn(CC(C)C)c(=O)c2c1C(=O)Nc1ccc(Cl)cn1,inactive: 7.93%,
COc1ccc(-n2c(-c3ccc(Cl)cc3)cc3c2CC(C)(C)CC3=O)c(OC)c1,inactive: -8.2%,
CCOC(=O)c1sc(NC(=O)c2nc(SC)ncc2Cl)c(C(=O)OCC)c1C,inactive: -4.92%,
Cc1cccc(OCCn2nnc3sc4c(c3c2=O)CCCC4)c1,inactive: 7.85%,
CC(C)c1ccc(NS(=O)(=O)c2ccc3[nH]cc(C(=O)NC4CCCCC4)c(=O)c3c2)cc1,inactive: -5.79%,
CCOc1ccc(CNCCNC(=O)c2nonc2N)cc1,inactive: 7.59%,
O=C(NCCc1ccc(F)cc1)C(=O)NCC(c1cccs1)S(=O)(=O)c1cccs1 (stereo not given),inactive: -9.66%,
COc1ccc(-c2cc(-c3ccccc3)nc3c2COc2ccc(Cl)cc2-3)cc1,inactive: 26.1%,
COc1ccc(NC(=O)Nc2cn(CC(C)C)c(=O)c3ccccc23)c(OC)c1,inactive: -4.89%,
CCOC(=O)N1CCC(NC(=O)c2cnn(-c3cccc(C)c3)c2-n2cccc2)CC1,inactive: 4.28%,
CC(=O)N1CCCc2cc(S(=O)(=O)N3CCC(C(=O)NC4CCCCC4)CC3)ccc21,inactive: 6.5%,
CCN1C(=O)C(O)(c2c(C)[nH]c3ccccc23)c2ccccc21 (stereo not given),inactive: -11.4%,
COc1ccc(NC(=O)CSC2=Nc3ccccc3C3=NC(CCC(=O)NCCc4ccccc4)C(=O)N23)cc1 (stereo not given),inactive: 1.76%,
CC(C)(C)OC(=O)N1CCC(c2c(C(=O)N3CCN(C4CCCCC4)CC3)cnn2-c2cccc(Cl)c2)CC1,inactive: -27.7%,
COC(=O)c1ccc(NS(=O)(=O)c2ccc3[nH]c4c(c3c2)CCCCC4)cc1,inactive: -5.84%,

SMILES,"activity change, negative = cytotoxicity",Potency
COc1cccc(N2C(=O)CSC23C(=O)N(CC(=O)Nc2cc(C)ccc2C)c2ccccc23)c1 (stereo not given),inactive: 2.5%,
COc1ccc(OC)c(CCNC(=O)CCCc2nnc3n(C)c(=O)c4sccc4n23)c1,inactive: 22.7%,
COC(=O)c1ccc(NC(=O)c2nn(C)c3c2CS(=O)(=O)c2ccccc2-3)cc1,inactive: 3.7%,
COc1cc(CN2CCc3nc(Nc4ccc5c(c4)OCCO5)ncc3C2)cc(OC)c1OC,inactive: -3.94%,
Cc1ccc(Cn2c(C)c(CNC3CCCCC3)c(C(=O)O)c2C)cc1,inactive: 7%,
CCC(=O)N1CCc2cc(S(=O)(=O)NC(C(=O)NCc3ccc(OC)cc3)C(C)C)ccc21 (stereo not given),inactive: -0.681%,
Cc1ccc(Cl)cc1NC(=O)c1oc2ccc(S(=O)(=O)N3CCC4(CC3)OCCO4)cc2c1C,inactive: 3.5%,
Cc1cc(C)c(NC(=O)c2sc3nc(C)cc(C)c3c2N)c(C)c1,inactive: -1.14%,
COc1ccc(C)cc1NC(=O)CN1CCN(CC(=O)Nc2ccccc2F)CC1,inactive: 3.68%,
Cc1ccc2sc(N3CCN(C(=O)C4COc5ccccc5O4)CC3)nc2c1C (stereo not given),inactive: 5.35%,
COc1ccc2[nH]cc(CCNC(=O)Nc3ccccc3C)c2c1,inactive: -11.2%,
CC1CCN(S(=O)(=O)c2ccc3nc(-c4cccnc4)cc(C(=O)NCCCOC(C)C)c3c2)CC1,inactive: 3.38%,
COc1ccc(CCNC(=O)c2ccc(CS(=O)(=O)c3ccc(C)cc3)o2)cc1OC,inactive: -2.98%,
COc1cccc(N2CCN(S(=O)(=O)c3ccc(-c4cnc(C5CC5)o4)cc3)CC2)c1,,active: 15.8 µM
CCOC(=O)C1CCCN(CCC(=O)Nc2ccc(OC)cc2OC)C1 (stereo not given),inactive: 12.7%,
O=C(Nc1c(C(=O)N2CCN(c3ccc(F)cc3)CC2)oc2ccccc12)c1ccco1,inactive: -5.6%,
Cc1cccc(-n2ccnc2SCC(=O)Nc2ccccc2C(F)(F)F)c1,inactive: 0.973%,
O=C(CSc1nc2ccccc2n1Cc1ccc(F)c(Cl)c1)N1CCN(c2ccc(F)cc2)CC1,inactive: 17.7%,
COc1ccc(CNC(=O)CCc2c(C)nc3c(c2C)c(=O)n(C)c(=O)n3C)cc1,inactive: -8.89%,
CCn1cc(C(=O)NCCc2ccccc2)c(=O)c2cc(S(=O)(=O)N3CCOCC3)ccc21,inactive: -1.19%,
CCCc1nn2c(=O)cc(COC(=O)c3ccc(NC(=O)c4cccs4)cc3)nc2s1,inactive: -47.7%,
CCc1ccc(NC(=O)CSC2=Nc3ccccc3C3=NC(CCC(=O)NCc4cccs4)C(=O)N23)cc1 (stereo not given),inactive: -4.86%,
CCC(=O)N1CCc2cc(Br)cc(S(=O)(=O)CCC(=O)NCc3ccccc3)c21,inactive: 0.0911%,
COc1cccc(NC(=O)c2cc(CN3CCOCC3)on2)c1,inactive: -3.95%,

SMILES,"activity change, negative = cytotoxicity",Potency
Cc1cccc2c1-c1sc(C(=O)NCc3ccccc3Cl)cc1CO2,inactive: -1.61%,
O=c1ccc2cc(S(=O)(=O)N3CCCC3)ccc2[nH]1,inactive: 3.23%,
COc1ccccc1CNC(=O)c1c2c(nc3ccccc13)C(=O)N(C1CCCCC1)C2,inactive: -1.12%,
CSc1cccc(NC(=O)CN(C)S(=O)(=O)c2ccc3c(c2)n(C)c(=O)c(=O)n3C)c1,inactive: -3.78%,
Cc1nn2c(=O)cc(COC(=O)c3ccc(C(C)(C)C)cc3)nc2s1,inactive: -7.53%,
Cc1ccc(NC(=O)NCCc2c(C)nn(C)c2C)c(Cl)c1,inactive: 4.5%,
COc1cc(C(=O)NCc2ccc3c(c2)CCN3C(=O)c2ccncc2)cc(OC)c1OC,inactive: -1.17%,
COc1cccc(/C=C/c2nc(C#N)c(N(C)Cc3ccccc3)o2)c1,inactive: 7.43%,
COc1ccc(-c2noc(CSCC(=O)Nc3ccc(C)cc3Br)n2)cc1OC,inactive: -2.33%,
COCCCNC(=O)CN1C(=O)c2c(c3ccccc3n2C)C1c1ccc(OC)cc1 (stereo not given),inactive: -5.21%,
CCCCSc1ncnc2c1sc1nc(N3CCOCC3)c3c(c12)CCCC3,inactive: 6.62%,
Fc1ccc(CNc2nc3c(-c4ccc(F)cc4)nnn3c3ccccc23)cc1,inactive: 4.96%,
CC1=C(C(=O)Nc2ccc(C)cc2)C(c2ccccc2Cl)n2nnnc2N1 (stereo not given),inactive: 15.8%,
CCOc1ccc(CNC(=O)COc2cc(=O)n(C)c3ccccc23)cc1,inactive: 8.76%,
CCOc1ccc(C(=O)NCc2nc(-c3ccc(Cl)cc3)no2)cc1OCC,inactive: -25.2%,
Cc1cccc(C)c1-n1ncc(C(=O)NCCN2CCN(C)CC2)c1C1CCN(C(=O)OC(C)(C)C)CC1,inactive: 21%,
CCN(Cc1ccccc1)S(=O)(=O)c1ccc(F)c(C(=O)Nc2cc(C)ccc2OC)c1,inactive: 2.35%,
Cc1cccc(NC(=O)C2CCN(S(=O)(=O)c3c(C)noc3/C=C/c3ccco3)CC2)c1,inactive: 2.5%,
CCOc1ccc(NC(=O)CCNS(=O)(=O)c2cccs2)cc1,inactive: 11.3%,
Cc1ccc(C)c(S(=O)(=O)n2nc(C)c(S(=O)(=O)N3CCCCCC3)c2C)c1,inactive: 5.75%,
COc1ccc(NC(=O)CCCN2C(=O)CCn3nc(-c4cn(C)c5ccccc45)cc32)cc1,inactive: -23.7%,
Cc1cc(Nc2ccccc2O)nc(C)n1,inactive: 2.18%,
COc1ccc(CNC(=O)C2CCN(C(=O)N3CCOc4ccc(Cl)cc43)CC2)cc1,inactive: -25%,
Cc1ccc2c(=O)c(C(=O)c3ccc(Cl)cc3)cn(CC(=O)Nc3ccc4c(c3)OCCO4)c2n1,inactive: -20%,

SMILES,"activity change, negative = cytotoxicity",Potency
Cc1cccc(C(=O)NCc2nc3ccccc3n2Cc2ccccc2Cl)c1,inactive: -3.45%,
CCOc1ccccc1CNC(=O)c1oc2c(c1C)-c1nn(Cc3cccc(Cl)c3)cc1CC2,inactive: -29.5%,
Cc1ccc(NC(=O)C2CCCN2S(=O)(=O)c2cccc3cccnc23)c(C)c1 (stereo not given),inactive: 0.148%,
O=C(Nc1cccc(OCc2cc(=O)n3ccccc3n2)c1)Nc1cccc(C(F)(F)F)c1,inactive: 6.19%,
O=C(Cc1ccc(NC(=O)N2CCSc3ncccc32)cc1)NCc1cccc(Cl)c1,inactive: -4.58%,
CCOc1ccc(CNC(=O)C2=Cc3cccc(OC)c3OC2)cc1,inactive: 20.6%,
COc1ccc(CCNC(=O)C2c3ccccc3C(=O)N2Cc2ccccc2)cc1OC (stereo not given),inactive: -1.1%,
COc1cccc(NC(=O)Cn2c(=O)n(Cc3ccc(C(=O)NCc4ccc(C)cc4)cc3)c(=O)c3ccccc32)c1,inactive: 17%,
CCOC(=O)c1c(C)n(-c2ccccc2)c2ccc(OC(=O)c3c(F)cccc3F)cc12,inactive: 10.1%,
CCOc1ccc(Cn2c(CNS(=O)(=O)c3ccc(C(C)(C)C)cc3)nc3cccnc32)cc1,inactive: 2.93%,
N#Cc1ccc(NC(=O)C2Cc3ccccc3CN2S(=O)(=O)c2ccc(F)cc2)cc1 (stereo not given),inactive: -7.95%,
O=C(COc1ccc(F)cc1)Nc1ccc2nc(SCCOc3ccccc3)sc2c1,inactive: 17.7%,
COc1ccc(OC)c(CC2C(=O)Nc3ccc(Br)cc32)c1 (stereo not given),inactive: -19.1%,
COC(=O)c1cc2sccc2n1Cc1ccc(F)cc1Cl,inactive: 4.56%,
CCOC(=O)c1c(C)oc2ccc(N(C(C)=O)S(=O)(=O)c3c(C)cc(C)cc3C)cc12,inactive: -0.542%,
Cc1cc(F)ccc1S(=O)(=O)Nc1cc2c(C(=O)O)c(C)oc2c2ccccc12,inactive: 1.29%,
Cc1cc(N2CCN(c3cc(Cl)ccc3C)CC2)n2nc(-c3ccccc3)nc2n1,inactive: -13.8%,
CCN(CC)CCNC(=O)c1cn(CC)c2ccc(S(=O)(=O)N3CCc4ccccc4C3)cc2c1=O,inactive: -0.371%,
CCOC(=O)c1cc(-c2ccc(C)cc2)n(CCC(=O)NCCc2ccc(C)cc2)c1C,inactive: 23.8%,
CCC(=O)N1CCc2cc(Br)cc(S(=O)(=O)CCC(=O)Nc3ccc(Cl)cc3)c21,inactive: 0.0598%,
Cc1cccc(C)c1NC(=O)CCC(=O)N1Cc2ccccc2Oc2ncccc21,inactive: 1.04%,
COc1cc(-c2cc3n(C)c(C)c(CCC(=O)NC4CCCCC4)c(=O)n3n2)cc(OC)c1OC,inactive: 16.3%,
CCC(=O)N1CCc2cc(Br)cc(S(=O)(=O)N3CCN(c4cc(C)ccc4C)CC3)c21,inactive: -1.28%,
